From publication PMC4336329 (PLoS ONE, 2015)
Among all 310,000 compounds or so, about 14,000 (4.5%) showed an effect of 50% or more. Effects have a minus sign here. Some of the results follow.
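Also: peak tail current of the secondary pulse compared with the same well before compound.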

These compounds were tested against human ether-à-go-go-related gene (hERG) potassium channel (human, UniProt Q12809) (assay: primary screen, population patch clamp on CHO cells stably expressing hERG).
human ether-à-go-go-related gene (hERG) potassium channel, sequence (Q12809 whole entry, looked up): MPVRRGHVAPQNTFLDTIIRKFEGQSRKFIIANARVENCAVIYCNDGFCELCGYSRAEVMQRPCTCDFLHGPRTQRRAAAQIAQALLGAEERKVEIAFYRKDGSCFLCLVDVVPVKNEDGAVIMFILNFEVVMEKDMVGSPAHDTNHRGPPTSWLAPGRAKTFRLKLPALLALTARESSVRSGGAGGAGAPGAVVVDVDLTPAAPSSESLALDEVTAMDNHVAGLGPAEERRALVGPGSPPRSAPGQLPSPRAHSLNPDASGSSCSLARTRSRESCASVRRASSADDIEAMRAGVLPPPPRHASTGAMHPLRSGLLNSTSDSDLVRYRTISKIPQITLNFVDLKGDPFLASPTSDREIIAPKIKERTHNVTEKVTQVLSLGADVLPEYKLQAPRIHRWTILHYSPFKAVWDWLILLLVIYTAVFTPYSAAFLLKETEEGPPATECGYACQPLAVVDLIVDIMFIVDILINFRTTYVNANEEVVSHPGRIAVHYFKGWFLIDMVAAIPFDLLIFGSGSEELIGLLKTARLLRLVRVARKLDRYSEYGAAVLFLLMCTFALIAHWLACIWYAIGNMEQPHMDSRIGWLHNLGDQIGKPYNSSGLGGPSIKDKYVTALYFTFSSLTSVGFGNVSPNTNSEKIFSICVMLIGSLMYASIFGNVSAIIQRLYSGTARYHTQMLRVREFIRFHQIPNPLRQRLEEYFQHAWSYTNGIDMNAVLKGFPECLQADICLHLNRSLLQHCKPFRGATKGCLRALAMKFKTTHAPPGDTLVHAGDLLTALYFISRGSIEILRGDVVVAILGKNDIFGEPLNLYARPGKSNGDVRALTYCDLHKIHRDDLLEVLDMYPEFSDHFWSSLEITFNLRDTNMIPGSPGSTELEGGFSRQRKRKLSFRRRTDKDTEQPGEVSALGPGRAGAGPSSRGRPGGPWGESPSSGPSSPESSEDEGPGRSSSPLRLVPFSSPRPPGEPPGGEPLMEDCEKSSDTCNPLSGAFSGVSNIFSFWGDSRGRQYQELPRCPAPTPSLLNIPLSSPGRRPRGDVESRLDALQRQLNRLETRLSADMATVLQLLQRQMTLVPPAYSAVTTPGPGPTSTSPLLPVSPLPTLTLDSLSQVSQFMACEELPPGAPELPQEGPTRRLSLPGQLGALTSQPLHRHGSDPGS
`COCCn1nnnc1SCC(=O)NCc1ccc2c(c1)OCO2` was tested, and the “hERG current change (%, negative = inhibition) at 10uM” value was 27.9%.
With `COCCNc1c2c(c(C#N)c3nc4ccccc4n13)CCCC2` the “hERG current change (%, negative = inhibition) at 10uM” value was -44.1%.
In the case of `Cc1ccc(C(c2nnnn2C2CCCC2)N2CCN(c3nc4ccccc4s3)CC2)cc1` (centres unmarked), the “hERG current change (%, negative = inhibition) at 10uM” value is reported as 2.13%.
With `CC(CC(=O)Nc1ccc(C(N)=O)cc1)c1ccccc1` (centres unmarked) the “hERG current change (%, negative = inhibition) at 10uM” value was 29.6%.
For `COc1ccc(N2CCN(C(=O)Cn3cnc4sc(C)c(S(=O)(=O)N5CCOCC5)c4c3=O)CC2)cc1`, the “hERG current change (%, negative = inhibition) at 10uM” value was -20.7%.
`CCOC(=O)c1ccc(NC(=S)NCC(O)c2ccccc2)cc1` (centres unmarked) was tested, and the “hERG current change (%, negative = inhibition) at 10uM” value was -13.3%.
For `CCN1CNC(=S)N(C(C)c2ccccc2)C1` (centres unmarked), the “hERG current change (%, negative = inhibition) at 10uM” value was -2.28%.
In the case of `CC1CCCCN1CCCNC(=O)C1CCCN(c2ncnc3c2nc2n3CCCCC2)C1` (centres unmarked), the “hERG current change (%, negative = inhibition) at 10uM” value is reported as 6.02%.
For `O=C1C=C2C=C[C@@H]3CC2(O1)[C@H]1CCCCN31`, the “hERG current change (%, negative = inhibition) at 10uM” value was -1.2%.
In the case of `COc1cc(NC(=O)C2C3C=CC(C3)C2C(=O)O)c(OC)cc1Cl` (centres unmarked), the “hERG current change (%, negative = inhibition) at 10uM” value is reported as 6.22%.
For `COc1ccc(NC(=O)CCc2nc(-c3ccc(C)cc3)no2)cc1Cl`, the “hERG current change (%, negative = inhibition) at 10uM” value was -5.02%.
In the case of `COc1ccc([C@H]2CC(=O)C=C(c3ccc(CNC(=O)OC(C)(C)C)cc3)C2)cc1`, the “hERG current change (%, negative = inhibition) at 10uM” value is reported as -3.23%.
`COC(=O)c1ccccc1-n1c(C)nc(=O)c(-c2ccccc2)c1C` was tested, and the “hERG current change (%, negative = inhibition) at 10uM” value was 10.8%.
With `Cc1ccc(C)c(-n2ccnc2SCC(=O)Nc2cccc(S(=O)(=O)NC3=NCCC3)c2)c1` the “hERG current change (%, negative = inhibition) at 10uM” value was -24.2%.
With `CCOc1ccc(C(=O)Nc2ccc(N3CCN(C)CC3)cc2)cc1Br` the “hERG current change (%, negative = inhibition) at 10uM” value was -15.1%.
In the case of `CC(C)CC(=O)NC(=S)Nc1ccc(S(=O)(=O)N2CCN(C)CC2)cc1`, the “hERG current change (%, negative = inhibition) at 10uM” value is reported as -2.63%.
For `CCOC(=O)c1oc2ccccc2c1COC(=O)CNC(=O)c1ccccc1OC`, the “hERG current change (%, negative = inhibition) at 10uM” value was -26%.
For `Cc1nc(=O)c(-c2ccccc2)c(C)n1-c1ccc(O)cc1`, the “hERG current change (%, negative = inhibition) at 10uM” value was 9.6%.
`Cc1sc(NC(=O)CN(Cc2ccc(F)cc2)C(=O)C(C)(C)C)c(C(N)=O)c1C` was tested, and the “hERG current change (%, negative = inhibition) at 10uM” value was -8.53%.
For `CCOC(=O)CSc1ccc2nnc(CCNS(=O)(=O)c3ccc(C)cc3)n2n1`, the “hERG current change (%, negative = inhibition) at 10uM” value was 4.23%.
In the case of `CCN1CN=C(NS(=O)(=O)c2ccc(C)cc2)NC1`, the “hERG current change (%, negative = inhibition) at 10uM” value is reported as 3.6%.
With `CCOC(=O)c1cnc2c(ccc3ccccc32)c1NCCN(C)C` the “hERG current change (%, negative = inhibition) at 10uM” value was -7.47%.
In the case of `CC(C)Cc1cc(C(=O)N2CCCC(C(=O)c3cc(F)ccc3F)C2)n(C)n1` (centres unmarked), the “hERG current change (%, negative = inhibition) at 10uM” value is reported as -15.7%.
For `O=C(Nc1cccnc1)C1COc2ccccc2O1` (centres unmarked), the “hERG current change (%, negative = inhibition) at 10uM” value was -1.56%.
For `CC(=O)Nc1ccc(OC(=O)c2ccc(Cl)cc2)cc1`, the “hERG current change (%, negative = inhibition) at 10uM” value was 12%.
In the case of `Cn1c(=O)c2c(nc(CN3CCN(c4ccccc4)CC3)n2CCc2ccccc2)n(C)c1=O`, the “hERG current change (%, negative = inhibition) at 10uM” value is reported as -33.7%.
In the case of `CC(C)C[C@H](NC(=O)c1nc[nH]c1C(=O)N1CC[NH2+]CC1)C(=O)OCc1ccccc1.[Cl-]`, the “hERG current change (%, negative = inhibition) at 10uM” value is reported as 20.5%.
With `COC(=O)c1ccccc1NC(=O)CSc1nnnn1C` the “hERG current change (%, negative = inhibition) at 10uM” value was -9.06%.
With `COc1ccc(OC)c(C(=O)COC(=O)c2cccnc2Cl)c1` the “hERG current change (%, negative = inhibition) at 10uM” value was -10.1%.
For `O=C(CSc1nc2ccccc2c(=O)n1CC1CCCO1)Nc1ccccc1Cl` (centres unmarked), the “hERG current change (%, negative = inhibition) at 10uM” value was -22.1%.
For `O=C(Nc1ccccn1)C1CCN(C(=O)Nc2ccccc2)CC1`, the “hERG current change (%, negative = inhibition) at 10uM” value was 4.81%.
In the case of `NC(=O)c1cccnc1Sc1ccc(Cl)cc1`, the “hERG current change (%, negative = inhibition) at 10uM” value is reported as -9.35%.
In the case of `COc1cc(CN2CCNC(=O)C2CC(=O)O)cc(OC)c1` (centres unmarked), the “hERG current change (%, negative = inhibition) at 10uM” value is reported as 2.55%.
With `Cc1cccc(OCC(=O)Nc2ccc(N3CCN(S(C)(=O)=O)CC3)cc2)c1C` the “hERG current change (%, negative = inhibition) at 10uM” value was 0.423%.
For `COc1nc(Nc2ccc(C(C)=O)cc2)nc(OC)n1`, the “hERG current change (%, negative = inhibition) at 10uM” value was -8.58%.
With `CCC(C)c1ccccc1NC(=S)Nc1cccnc1` (centres unmarked) the “hERG current change (%, negative = inhibition) at 10uM” value was 13.5%.
For `CCOc1ccc(S(=O)(=O)Nc2ccc(C(=O)NCC(C)(C)N3CCOCC3)cc2)cc1`, the “hERG current change (%, negative = inhibition) at 10uM” value was -6.45%.
In the case of `CC(C)N(C(=O)CSc1nn2c(=O)c(C(C)(C)C)nnc2s1)c1ccccc1`, the “hERG current change (%, negative = inhibition) at 10uM” value is reported as -2.77%.
With `Cc1cc(C(=O)O)sc1C` the “hERG current change (%, negative = inhibition) at 10uM” value was 16.1%.
`O=C(O)C1C2C=CC3(CN(Cc4ccco4)C(=O)C13)O2` (centres unmarked) was tested, and the “hERG current change (%, negative = inhibition) at 10uM” value was 10.8%.
`COc1ccc(C(=O)OCC(=O)Nc2ccc3c(c2)OCCO3)c(OC)c1` was tested, and the “hERG current change (%, negative = inhibition) at 10uM” value was 12.1%.
With `Nc1nc(-c2cccc(NS(=O)(=O)c3ccccc3)c2)cs1` the “hERG current change (%, negative = inhibition) at 10uM” value was -6.06%.
In the case of `CCC(C(=O)Nc1ccc(S(=O)(=O)N(C)C2CCN(C)CC2)cc1)c1ccccc1` (centres unmarked), the “hERG current change (%, negative = inhibition) at 10uM” value is reported as -0.565%.
For `COc1cc(C)ccc1OCCOc1c(Cl)cc(Cl)cc1Cl`, the “hERG current change (%, negative = inhibition) at 10uM” value was 5.91%.
